The source of these data is PubChem BioAssay AID463173 (ICCB-Longwood Screening Facility, Harvard Medical School, 2010).

Out of some 52,000 compounds screened, about 1,700 (3.3%) were called active. Cut-off read from the data, not from the text of the source: active = survival mostly below about 52% (no sharp cut-off); inactive = mostly above about 56%. The list shows a part of the results.

This assay has as its system Wild type. Nature of the assay: S. aureus survival, RN4220 and DeltatarO strains – OD600, teichoic acid synthesis inhibitors, primary screen (AID 463173). As to conditions: S. aureus RN4220 wild type/DeltatarO growth, OD600, 18 h, hits give low values, screened at 18.75 µg/mL (by protocol).
Take `O=C(NCCCc1ccccc1)c1cccs1`: the survival was inactive: 121%.

Take `CCCCc1ccc(C(=O)c2c(N)c(C(=O)Nc3cccc(OC)c3)c3ccccn23)cc1`: the survival was inactive: 88%. Under `Cc1nnc(N2C(=O)c3oc4ccccc4c(=O)c3C2c2cccc(OCCC(C)C)c2)s1` (centres undefined) stands inactive: 66%. For the compound `COc1cc(C(=O)NCCc2sc(-c3ccc(C)cc3)nc2C)cc(OC)c1OC`, the survival is inactive: 87%. Take `CC1CCN(C(=O)Cn2cc(SCC(=O)NCc3ccc(F)cc3)c3ccccc32)CC1`: the survival was inactive: 89%. Turning to `COc1ccc(C(=O)/C=C/c2cn(CC(O)CN3CCCCCC3)c3ccccc23)cc1OC` (centres undefined), the survival was inactive: 96%. Regarding `COCCCNC(=O)c1c(NC(=O)Cc2coc3cc(C)ccc23)sc2c1CCCC2`, the survival was inactive: 80%. In the case of `Cn1c(=O)c2cc(C(=O)NCCCN3CCN(c4ccc(F)cc4)CC3)sc2c2ccccc21`, the survival was inactive: 81%. Regarding `CC(=N/Nc1nnc(C)n1N)/C(C)=N/Nc1nnc(C)n1N`, the survival is inactive: 110%. Regarding `O=[N+]([O-])c1cc(-c2nc(-c3ccccc3)no2)ccc1NCc1ccco1`, the survival is inactive: 82%. Consider `COc1ccc(NC(=O)CSc2nc3ccccc3nc2N2CCOCC2)c(OC)c1`, for which the survival was inactive: 65%.

Consider `Cc1ccc(-c2noc(-c3ccc(N4CCOCC4)c([N+](=O)[O-])c3)n2)cc1`, for which the survival was inactive: 77%. On to `Cc1ccc(C(=O)c2oc3ccccc3c2NC(=O)COc2ccccc2C)cc1`, for which the survival is inactive: 84%. `Cc1ccc(C)c2c(N)c3c(nc12)CCCCC3`: the survival is inactive: 96%. In the case of `Cc1ccccc1CN1C(=O)c2ccccc2S(=O)c2ccc(C(=O)N3CCOCC3)cc21` (centres undefined), the survival is inactive: 81%. In the case of `COc1ccc(Cn2c(SCC(=O)N3CCN(c4ccc(F)cc4)CC3)nc3ccccc32)cc1`, the survival is inactive: 45%.

On to `O=C(CN1CCN(Cc2ccc(F)cc2)C1=O)NCc1ccc(F)cc1`, for which the survival was inactive: 98%. With `Cc1ccc2scc(N3CCCCC3C)c(=O)c2c1` (centres undefined) the figure was inactive: 74%; with `Cc1ccccc1CNC(=O)CN1C(=O)CCCc2ccccc21`, inactive: 83%.

Consider `Cc1ccc(C2CC(=O)N(Cc3ccc(F)cc3)c3c2c(C)nn3-c2nc(C)cc(C)n2)cc1` (centres undefined), for which the survival was inactive: 84%.

Regarding `COc1ccc(CCNC(=O)CCCn2c(=O)c3ccccc3n(CC(=O)Nc3ccccc3C)c2=O)cc1OC`, the survival was inactive: 87%. Consider `Cc1ccc(NC2(c3ccccc3)C(=O)c3ccccc3C2=O)cc1F`, for which the survival is inactive: 52%. With `C=CCNC(=O)CN1CCC(n2c(C)nc3cc(C(F)(F)F)ccc32)CC1`, the survival was inactive: 109%. Take `CC1CCN(S(=O)(=O)c2ccc3c(c2)N(CC(=O)NCCCOC(C)C)C(=O)CO3)CC1`: the survival is inactive: 123%.

Consider `O=C(COc1ccccc1)N(Cc1cccnc1)c1nc2c(F)cc(F)cc2s1`, for which the survival was inactive: 72%. `Cc1ccsc1CN(C(=O)COc1ccccc1Cl)C1CCS(=O)(=O)C1` (centres undefined): the survival was inactive: 82%. Under `COCCNC(=O)Cn1c(-c2cccs2)cc2cc(Cl)ccc21` stands inactive: 115%.

Consider `CCc1ccccc1NC(=O)CN(c1ccccc1OC)S(=O)(=O)c1ccc(C)cc1`, for which the survival is inactive: 62%.

For the compound `CCC(C)NC(=O)CCCn1c(=O)c2cccn2c2ccccc21` (centres undefined), the survival was inactive: 107%. Under `CCOC(=O)CSc1nc2sc3c(c2c(=O)n1Cc1ccccc1)CC(C(C)C)OC3` (centres undefined) stands inactive: 70%. Consider `CCC(C(=O)NC1CCCCC1)n1c(SCc2ccccc2F)nc2ccncc21` (centres undefined), for which the survival was inactive: 73%. With `COCCNC(=O)CN1C(=O)COc2ccc(S(=O)(=O)N3CCCCCC3)cc21`, the survival was inactive: 78%.

For `COc1ccc(C2C(=O)N(C3CCCCCC3)CC(=O)N2CCc2ccc(Cl)cc2)cc1OC` (centres undefined), the survival is inactive: 72%. For the compound `CCc1ccc(NC(=O)CSc2ccc(-c3sc(-c4ccccc4)nc3C)nn2)cc1`, the survival is inactive: 64%. As to `Cc1ccccc1C(=O)Nc1cccc(NC(=O)c2ccc(C(C)(C)C)cc2)c1`, the survival was inactive: 140%. With `Cc1nn(C(C)C(=O)NCCc2ccccc2)c(=O)c2c1sc1ccccc12` (centres undefined) the figure was inactive: 98%; with `CCN(Cc1ccccc1)c1nc2c(S(=O)(=O)c3ccccc3)nnn2c2ccc(Cl)cc12`, inactive: 88%; with `CCc1ccc(C(c2ccccc2)c2c(C)[nH]c3ccccc23)s1` (centres undefined), inactive: 36%. As to `Cc1cc(C)c(NC(=O)CSc2nc3ccccc3c3nc(-c4ccccc4)nn23)c(C)c1`, the survival is inactive: 84%. In the case of `Cc1cccc(CNC(=O)c2ccc3c(c2)N(C)CCS3)c1`, the survival was inactive: 86%. In the case of `CCOc1ccc(C2C(=O)N(C3CCCCC3)CC(=O)N2Cc2ccc(F)cc2)cc1OC` (centres undefined), the survival is inactive: 55%. Turning to `CCCC(C)NS(=O)(=O)c1ccccc1` (centres undefined), the survival is inactive: 119%. For `COc1ccc(NC(=O)Cn2c(=O)n(CCCC(=O)NCc3ccccc3Cl)c(=O)c3ccccc32)c(OC)c1`, the survival is inactive: 140%. Regarding `Cc1ccccc1CNC(=O)Cn1nc(C)c2nn(-c3ccc(Cl)cc3)c(C)c2c1=O`, the survival was inactive: 32%. Regarding `CCOC(=O)c1sc2ccccc2c1S(=O)(=O)Nc1cc(OC)ccc1OC`, the survival was inactive: 83%. Take `COc1ccc(N2CCN(c3ncccc3-c3nc(-c4ccccc4C)no3)CC2)cc1`: the survival was inactive: 87%. With `COc1ccc(CNCc2c(C(=O)O)c(C)n(Cc3ccccc3C)c2C)cc1OC` the figure was inactive: 90%. With `Cc1ccc(C)c(N2CCN(S(=O)(=O)c3ccc4[nH]c5c(c4c3)CCCC5)CC2)c1` the figure was active: -4%; with `N#Cc1nc(-c2ccc(COc3ccc(Cl)cc3)o2)oc1N1CCCCC1`, inactive: 79%.

On to `CCOC(=O)c1scc(-c2ccccc2)c1S(=O)(=O)Nc1ccccc1OC`, for which the survival was inactive: 69%. For `COc1ccccc1N1CCN(c2nc3c(S(=O)(=O)c4ccccc4)nnn3c3ccc(Cl)cc23)CC1`, the survival was inactive: 86%. `COc1ccc(CNS(=O)(=O)c2ccc(C(=O)N(C)C)s2)cc1`: the survival was inactive: 87%. As to `COc1ccc(Cn2c(SCc3ccc(C(=O)NC4CCCCC4)cc3)nc3ccncc32)cc1`, the survival is inactive: 81%. Take `CCc1cccc(C)c1Nc1c(-c2ccc(F)cc2)nc2sccn12`: the survival was inactive: 52%. With `Fc1ccc(N2CCN(Cc3nnc(-c4ccccc4Cl)o3)CC2)cc1` the figure was inactive: 82%; with `O=C1c2[nH]nc(-c3ccccc3O)c2C(c2cccc(OCc3ccccc3)c2)N1CCCO` (centres undefined), inactive: 70%.

Consider `CCOc1ccc(NC(=O)CSc2ncc(S(=O)(=O)c3ccc(F)c(C)c3)c(=O)[nH]2)cc1`, for which the survival is inactive: 82%. For `Cc1ccc2c(=O)c(C(=O)c3ccccc3)cn(CC(=O)NCc3ccccc3)c2n1`, the survival is inactive: 68%. With `CCS(=O)(=O)Nc1ccc2[nH]c(=O)[nH]c2c1` the figure was inactive: 96%.

With `O=C(CSc1nnc(COc2cccc3cccnc23)o1)N1c2ccccc2CCc2ccccc21`, the survival was inactive: 109%. For the compound `O=C(O)CC(NS(=O)(=O)c1cccc2nsnc12)C(=O)O` (centres undefined), the survival was inactive: 117%. As to `Cc1ccc(CNc2nc(-c3ccco3)nn2C(=O)c2ccccc2[N+](=O)[O-])cc1`, the survival is inactive: 107%. For `C/C(O)=C\c1sc2ccccc2[n+]1C`, the survival was inactive: 105%. With `COc1ccc(N2CC(C(=O)NCCS(=O)(=O)N3CCN(c4ccccc4)CC3)CC2=O)cc1` (centres undefined) the figure was inactive: 70%.

As for `CC(C)OCCCNC(=O)c1cn(C)c2ccc(S(=O)(=O)N(C)C3CCCCC3)cc2c1=O`, the survival was inactive: 93%. With `COc1ccc(S(=O)(=O)N2CCC(Oc3cccc(C(F)(F)F)c3)CC2)cc1OC` the figure was inactive: 84%.

Turning to `CN(CC(=O)Nc1ccc(OC(F)(F)F)cc1)S(=O)(=O)c1ccc2c(c1)CCC(=O)N2`, the survival is inactive: 131%. As for `CCc1cccc(NC(=O)c2cnc(N3CCOCC3)c3ccccc23)c1`, the survival is inactive: 73%. Consider `CC(C)(C)NC(=O)c1cccc(NC(=O)c2ccco2)c1`, for which the survival is inactive: 100%. Under `Cc1c(C(=O)N2CCCC2)oc2c1-c1nn(CC(=O)NCc3ccc(OC(C)C)cc3)cc1CC2` stands inactive: 88%. Turning to `Cc1ccc(-n2c(=O)c3c(C)c(C(=O)N(C)C)sc3n(CC(=O)N(C)c3ccccc3)c2=O)cc1C`, the survival is inactive: 69%. In the case of `Cc1ccc(C)c(NC(=O)CSc2nc3nccnc3c(=O)n2CCc2c[nH]c3ccccc23)c1`, the survival was inactive: 67%. For `Cc1ccc(CSc2nc(N)cc(N)n2)cc1`, the survival was inactive: 106%. With `Cc1ccc2occ(-c3cc(-c4ccccc4)nc4c3COc3ccccc3-4)c(=O)c2c1` the figure was inactive: 71%; with `O=C(Nc1ccc(-c2nc3cc(Cl)ccc3o2)cc1)c1cc(Br)ccc1Cl`, inactive: 134%; with `CCc1cccc(C)c1NC(=O)CN1CCN(Cc2ccccc2Cl)S1(=O)=O`, inactive: 134%.

On to `CCc1ccc(NC(=O)Cn2c(=O)c3cccn3c3ccccc32)cc1`, for which the survival is inactive: 93%. Turning to `CCC1(C)N=c2c(c(=O)n(C)c(=O)n2C)=NO1` (centres undefined), the survival is inactive: 101%.

On to `COc1ccc(-c2csc3nc(-c4ccc(Cl)cc4)oc(=O)c23)cc1`, for which the survival is inactive: 80%. Take `Cc1cccc(NC(=O)CCn2cnnn2)c1`: the survival was inactive: 78%. Take `CCN(C(=O)CSc1nc2ccccc2c2nc(CCn3c(C)nc4ccccc43)nn12)c1cccc(C)c1`: the survival is inactive: 99%.

As for `CCN(CC)S(=O)(=O)c1ccc2c(c1)N(CC(=O)N1CCN(c3cccc(C)c3)C(C)C1)C(=O)CO2` (centres undefined), the survival is inactive: 77%.

For `COc1cc(C(=O)Nc2ccc3nc4n(c(=O)c3c2)CCCCC4)cc(OC)c1OC`, the survival is inactive: 82%. On to `Cc1ccc(Nc2c(-c3ccc(N4CCOCC4)cc3)nc3ccc(C)cn23)cc1`, for which the survival was inactive: 85%. Under `CC(=O)c1ccc(N2CCN(C(=O)Nc3ccc(C)cc3)CC2)cc1` stands inactive: 135%; under `Cn1c(=O)oc2cc(S(=O)(=O)NC(CC(=O)O)c3cccc(Br)c3)ccc21` (centres undefined), inactive: 80%. As for `COc1ccc(NC(=O)CSc2nnc(N)s2)cc1`, the survival was inactive: 73%.

`Cc1cc(Nc2ccccc2C)c2cccc(C)c2n1`: the survival is inactive: 100%. As to `O=C(NCc1c(-n2cccc2)sc2c1CCCC2)Nc1cccc(C(F)(F)F)c1`, the survival was inactive: 77%.
